Assay results: the supplement of paper PMC4604168 (melanoma cell lines)
This is one part of the list. Many values rest on one well or one pass, so single values are uncertain.

Key:
Assay in all cases: cell count relative to DMSO control; melanoma cells; higher = more viable cells
Details in all cases: library dose: standard library concentration; 72 h
G361 = system: G361
IPC-298 = system: IPC-298
IST-MEL1 = system: IST-MEL1
LB2518-MEL = system: LB2518-MEL
LOXIMVI = system: LOXIMVI
MEL-HO = system: MEL-HO
MZ2-MEL = system: MZ2-MEL
MeWo = system: MeWo
RPMI7951 = system: RPMI7951
RVH-421 = system: RVH-421
SkMel28 = system: SkMel28
SkMel2 = system: SkMel2
SkMel30 = system: SkMel30
SkMel5 = system: SkMel5
UACC257 = system: UACC257
UACC62 = system: UACC62
WM115 = system: WM115
WM1716 = system: WM1716
WM1745 = system: WM1745
WM3526 = system: WM3526
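Note: cells treated in 1,536-well plates, then fixed and DAPI-stained, with nuclei counted from automated high-throughput microscope images.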

Compound | cell count (G361) [%] | cell count (IPC-298) [%] | cell count (IST-MEL1) [%] | cell count (LB2518-MEL) [%] | cell count (LOXIMVI) [%] | cell count (MEL-HO) [%] | cell count (MZ2-MEL) [%] | cell count (MeWo) [%] | cell count (RPMI7951) [%] | cell count (RVH-421) [%] | cell count (SkMel28) [%] | cell count (SkMel2) [%] | cell count (SkMel30) [%] | cell count (SkMel5) [%] | cell count (UACC257) [%] | cell count (UACC62) [%] | cell count (WM115) [%] | cell count (WM1716) [%] | cell count (WM1745) [%] | cell count (WM3526) [%]
O=C(Nc1cc(C(F)(F)F)cc(C(F)(F)F)c1)c1cc(Cl)ccc1O + CN1CCN(c2ccc3nc(-c4c(N)c5c(F)cccc5[nH]c4=O)[nH]c3c2)CC1 [Dovitinib] (first compound 0.08 µM, partner dose 0.5 µM) | 65.6 | 51.9 | 61.7 | 46.8 | 121 | 70.8 | 36.9 | 39.6 | 79.7 | 83.2 | 40.3 | 52.9 | 78.8 | 52.7 | 75.3 | 75.5 | 53.5 | 65.1 | 62.8 | 72.1
Cn1nnc2c(C(N)=O)ncn2c1=O [temozolomide] + OCCn1cc(-c2cnc3nnn(Cc4ccc5ncccc5c4)c3n2)cn1 [PF04217903] (first compound 10 µM, partner dose 5 µM) | 97 | 80.8 | 76.2 | 105 | 76 | 89.2 | 94.8 | 96.8 | 101 | 110 | 50.4 | 105 | 68 | 110 | 122 | 77.7 | 123 | 80.7 | 79 | 108
O=C(Nc1cc(C(F)(F)F)cc(C(F)(F)F)c1)c1cc(Cl)ccc1O + Nc1nc(F)nc2c1ncn2[C@@H]1O[C@H](CO)[C@@H](O)[C@@H]1O [fludarabine] (first compound 0.08 µM, partner dose 1 µM) | 85.9 | 80.9 | 83.6 | 111 | 131 | 75.1 | 125 | 112 | 68 | 88.5 | 2.2 | 2.49 | 23.5 | 33.4 | 53.7 | 83.7 | 107 | 110 | 98.2 | 36
O=C(O)c1ccc2c(c1)nc(Nc1cccc(Cl)c1)c1ccncc12 + Nc1nc(F)nc2c1ncn2[C@@H]1O[C@H](CO)[C@@H](O)[C@@H]1O [fludarabine] (first compound 2 µM, partner dose 1 µM) | 66 | 60.7 | 64 | 77.6 | 57.7 | 54.5 | 68.8 | 65.5 | 36.4 | 83.6 | 1.04 | 0.166 | 11.6 | 22.5 | 27.3 | 64.5 | 75.6 | 90.2 | 86.3 | 14.1
O=C(O)[C@@H]1[O][Sb](=[O])([O][Sb]2(=[O])[O][C@H]([C@H](O)CO)[C@H](O)[C@H](C(=O)O)[O]2)[O][C@H]([C@H](O)CO)[C@@H]1O (stereo not given in full) [stibogluconate] + C#Cc1cccc(Nc2ncnc3cc(OCCOC)c(OCCOC)cc23)c1 [erlotinib] (first compound 10 µM, partner dose 4 µM) | 60.6 | 77 | 92 | 61.3 | 42.8 | 75.6 | 80.8 | 82.4 | 69.2 | 83.4 | 46.8 | 71.8 | 62.6 | 80.7 | 125 | 65.7 | 58.5 | 99.4 | 60.3 | 73
O=C(Nc1cc(C(F)(F)F)cc(C(F)(F)F)c1)c1cc(Cl)ccc1O + NC1(c2ccc(-c3nc4ccn5c(=O)[nH]nc5c4cc3-c3ccccc3)cc2)CCC1 [MK2206] (first compound 0.08 µM, partner dose 2 µM) | 74.3 | 75.4 | 78.2 | 78.7 | 79.1 | 56.9 | 77 | 66.7 | 88 | 85.5 | 57.8 | 74.7 | 86.3 | 61.6 | 91.9 | 62.3 | 68.2 | 81.9 | 81.8 | 55.1
O=C(Nc1ccccc1)c1cc([N+](=O)[O-])ccc1Cl + Cn1cc(/C=C2\C(=O)Nc3cccnc32)c2ccccc21 [GW441756] (first compound 10 µM, partner dose 2 µM) | 89.7 | 90 | 111 | 79.4 | 63.5 | 84.8 | 79.6 | 78.1 | 70.5 | 90.7 | 82.4 | 101 | 74.3 | 87 | 98.8 | 65.3 | 74 | 109 | 73.4 | 92.4
O=C(Nc1ccccc1)c1cc([N+](=O)[O-])ccc1Cl + N#Cc1c(O)c2c(-c3ccc(-c4ccccc4O)cc3)csc2[nH]c1=O [A769662] (first compound 10 µM, partner dose 10 µM) | 70.8 | 99.1 | 103 | 91.8 | 83.9 | 94.3 | 98.9 | 81.4 | 90 | 101 | 72.1 | 103 | 111 | 120 | 84.8 | 92.9 | 76.8 | 99.7 | 72.2 | 91.3
O=C(Nc1cc(C(F)(F)F)cc(C(F)(F)F)c1)c1cc(Cl)ccc1O + O=C(O)c1ccc(-c2c[nH]c3ncc(-c4ccccc4)cc23)cc1C1CCCC1 [GSK650394] (first compound 0.08 µM, partner dose 0.8 µM) | 62 | 83.7 | 53.7 | 102 | 96.7 | 69.3 | 88 | 86.4 | 78.8 | 90.4 | 52.2 | 66.1 | 76 | 80.4 | 62.8 | 103 | 93.2 | 74.1 | 85 | 85.2
O=C(O)c1ccc2c(c1)nc(Nc1cccc(Cl)c1)c1ccncc12 + NC(=O)Nc1cc(-c2cccc(F)c2)sc1C(=O)N[C@H]1CCCNC1 [AZD7762] (first compound 2 µM, partner dose 0.1 µM) | 64.1 | 104 | 77.3 | 114 | 53.7 | 55.8 | 79.8 | 82.2 | 28.3 | 93.7 | 38.6 | 99 | 84 | 77.9 | 80 | 83.7 | 61.4 | 55.9 | 77.6 | 39
O=C(Nc1cc(C(F)(F)F)cc(C(F)(F)F)c1)c1cc(Cl)ccc1O + CN(NC(=O)CC(=O)NN(C)C(=S)c1ccccc1)C(=S)c1ccccc1 [STA4783] (first compound 0.08 µM, partner dose 0.03 µM) | 54.2 | 69.7 | 45.2 | 25.6 | 63.5 | 81.1 | 111 | 18.9 | 91.1 | 80.6 | 31.4 | 68.2 | 74.3 | 63.5 | 95.4 | 70.8 | 26.1 | 83.2 | 35.9 | 103
O=C(O)c1ccc2c(c1)nc(Nc1cccc(Cl)c1)c1ccncc12 + O=C(Nc1cccc(Cl)c1)Nc1ncc(CCNc2ncnc3ccsc23)s1 [SNS314] (first compound 2 µM, partner dose 0.004 µM) | 40.3 | 83.1 | 40.8 | 90 | 48.8 | 42.9 | 45.5 | 37.1 | 50.2 | 79.8 | 56.1 | 69.7 | 79.5 | 63.3 | 67 | 83.2 | 46.6 | 43.8 | 52.9 | 50.5
Cn1nnc2c(C(N)=O)ncn2c1=O [temozolomide] + Cc1cc(N2CCOCC2)cc2[nH]c(-c3c(NC[C@@H](O)c4cccc(Cl)c4)cc[nH]c3=O)nc12 [BMS536924] (first compound 10 µM, partner dose 1 µM) | 78.9 | 75.2 | 73.8 | 94.7 | 79.2 | 101 | 86.6 | 69.4 | 99.5 | 109 | 60.1 | 87.5 | 62.7 | 72.4 | 105 | 68 | 102 | 69.6 | 56.2 | 91.3
O=C(Nc1cc(C(F)(F)F)cc(C(F)(F)F)c1)c1cc(Cl)ccc1O + O=C(CCCCCCC(=O)Nc1ccccc1)NO [vorinostat] (first compound 0.08 µM, partner dose 0.4 µM) | 75.1 | 83.9 | 86 | 81.5 | 75.5 | 82.1 | 89.7 | 70.5 | 70.9 | 89.5 | 44.3 | 68.3 | 78.7 | 51.8 | 60.5 | 83.5 | 66.2 | 80.8 | 66.6 | 76.3
O=C(O)[C@@H]1[O][Sb](=[O])([O][Sb]2(=[O])[O][C@H]([C@H](O)CO)[C@H](O)[C@H](C(=O)O)[O]2)[O][C@H]([C@H](O)CO)[C@@H]1O (stereo not given in full) [stibogluconate] + COCC[n+]1c2c(n(Cc3cnccn3)c1C)C(=O)c1ccccc1C2=O [YM155] (first compound 10 µM, partner dose 0.002 µM) | 95.7 | 59.5 | 44.4 | 55.8 | 74.6 | 98.1 | 42.7 | 77.8 | 53.1 | 113 | 51.5 | 66.5 | 105 | 49.9 | 29 | 100 | 73.1 | 74.7 | 121 | 50.3
O=C(Nc1cc(C(F)(F)F)cc(C(F)(F)F)c1)c1cc(Cl)ccc1O + Cn1nnc2c(C(N)=O)ncn2c1=O [temozolomide] (first compound 0.08 µM, partner dose 10 µM) | 109 | 72 | 71.9 | 78.6 | 83.7 | 84.8 | 80.3 | 87.4 | 73.1 | 69.4 | 36.4 | 104 | 66.2 | 87.4 | 81.3 | 49.3 | 85.3 | 67 | 95.8 | 82.8
